Laboratory results reported in paper PMC4336329 (PLoS ONE, 2015).
The whole screen tested about 310,000 compounds, of which about 2,200 (0.71%) showed an effect of 50% or more. Effects have a minus sign here. This is one part of the list.

Biological target: human ether-à-go-go-related gene (hERG) potassium channel (human, UniProt Q12809)
Experiment: primary screen, population patch clamp on CHO cells stably expressing hERG

Sequence of human ether-à-go-go-related gene (hERG) potassium channel (Q12809 whole entry, looked up): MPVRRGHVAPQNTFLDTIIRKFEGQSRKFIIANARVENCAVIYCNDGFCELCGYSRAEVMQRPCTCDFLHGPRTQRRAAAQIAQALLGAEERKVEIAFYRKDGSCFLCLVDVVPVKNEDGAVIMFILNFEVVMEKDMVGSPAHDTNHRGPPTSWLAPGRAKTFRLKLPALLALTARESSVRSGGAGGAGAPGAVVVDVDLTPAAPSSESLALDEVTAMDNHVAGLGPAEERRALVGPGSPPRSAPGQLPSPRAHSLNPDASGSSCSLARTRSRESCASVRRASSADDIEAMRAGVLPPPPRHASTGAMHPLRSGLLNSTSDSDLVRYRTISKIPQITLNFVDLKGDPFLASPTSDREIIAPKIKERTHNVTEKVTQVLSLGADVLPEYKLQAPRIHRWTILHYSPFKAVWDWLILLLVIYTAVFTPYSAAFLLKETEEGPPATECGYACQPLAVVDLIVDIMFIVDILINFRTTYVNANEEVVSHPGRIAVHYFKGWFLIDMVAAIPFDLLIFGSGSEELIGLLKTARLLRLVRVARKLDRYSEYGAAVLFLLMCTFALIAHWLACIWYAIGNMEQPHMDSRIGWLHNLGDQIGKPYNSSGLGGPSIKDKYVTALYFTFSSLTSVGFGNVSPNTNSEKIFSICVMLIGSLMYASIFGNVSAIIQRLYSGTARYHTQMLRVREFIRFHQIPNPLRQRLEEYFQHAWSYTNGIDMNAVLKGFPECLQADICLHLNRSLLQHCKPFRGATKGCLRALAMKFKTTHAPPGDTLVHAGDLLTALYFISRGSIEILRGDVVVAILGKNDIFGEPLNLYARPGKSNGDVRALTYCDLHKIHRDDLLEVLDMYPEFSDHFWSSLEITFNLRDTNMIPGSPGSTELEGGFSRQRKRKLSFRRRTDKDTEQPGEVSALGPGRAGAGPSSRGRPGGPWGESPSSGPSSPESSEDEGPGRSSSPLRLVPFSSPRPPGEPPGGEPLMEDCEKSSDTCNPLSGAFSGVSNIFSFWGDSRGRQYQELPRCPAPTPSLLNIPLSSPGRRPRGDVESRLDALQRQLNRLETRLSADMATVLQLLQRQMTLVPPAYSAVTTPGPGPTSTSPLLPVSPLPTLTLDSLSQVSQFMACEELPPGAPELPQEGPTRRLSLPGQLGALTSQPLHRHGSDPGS

SMILES	hERG current change (%, negative = inhibition) at 1uM [%]
N=C(CC1CC(=O)NC(=O)C1)C1=C(O)CCCC1=O	8.21
CC(=O)Nc1ccc(NC(=O)CSc2ccc(-c3cccnc3)nn2)cc1	18.9
Cc1cnc(C(=O)OCC(=O)Nc2ccc(Cl)cn2)cn1	5.11
O=C(CC1SC(N2CCOCC2)=NC1=O)Nc1cc([N+](=O)[O-])ccc1Cl (stereo not drawn)	-2.41
CCCCN=C1NC(=O)C(CC(=O)Nc2ccc(Cl)cc2)S1 (stereo not drawn)	9.18
CC1(C)CC(=O)C(C=NCCN2CCN(C3CC(=O)N(c4ccc(F)cc4)C3=O)CC2)=C(O)C1 (stereo not drawn)	10.6
O=C(NCc1cccnc1)c1ccccc1NS(=O)(=O)c1ccc(F)cc1	9.83
COc1ccc(CCNC(=O)CN(c2ccccc2OC)S(=O)(=O)c2ccc(C)cc2)cc1	14.4
CCN(CC)c1ccc(CC(=O)NC(C)Cc2ccccc2)cc1 (stereo not drawn)	10.9
CCOc1ccc(NS(=O)(=O)c2ccc3c(c2)oc(=O)n3C)cc1	20
CC(=O)N1c2c(cc(Br)cc2S(=O)(=O)N2CCCCC2)CC1C (stereo not drawn)	3.68
Cn1cnnc1SCc1nnc(-c2ccccc2Br)o1	5.3
CC(=O)Nc1sc2c(c1CN1CCN(c3ccccn3)CC1)CCCC2	-12.3
CC(C)c1ccc(S(=O)(=O)c2n[nH]n3c2nc(=O)c2ccccc23)cc1	7.77
CCN(CC)S(=O)(=O)c1cccc(C(=O)N/N=C/c2ccccc2OCC(=O)O)c1	9.96
COc1ccccc1N1CCN(C2CCN(S(=O)(=O)c3ccc(NC(C)=O)cc3)CC2)CC1	5.87
CC1(C)CC(=O)C(C=NCCN2CCN(CCc3ccccc3)CC2)=C(O)C1	-13.8
CCC(=O)Nc1ccc(S(=O)(=O)Nc2cccnc2)cc1	12.3
Oc1[nH]c2ccccc2c1OCc1ccncc1	6.37
CCNc1nc(CSc2ccccc2)nc2sc(C)c(C)c12	6.57
CN(C)C(=S)SSC(=S)N(C)C	11.6
CCN1CCN(C(c2cccs2)C(C)NC(=O)c2cccc(OC)c2OC)CC1 (stereo not drawn)	2.53
COc1ccc(/C=N/NC(=S)Nc2cccc(C(=O)O)c2)cc1OC	9.64
Cc1c(N(C)S(=O)(=O)c2cc(C(=O)Nc3ccccn3)ccc2Cl)c(=O)n(-c2ccccc2)n1C	19
COC(=O)CN(Cc1ccccc1)S(=O)(=O)c1ccc(OC)c(OC)c1	16.9
COc1cc2c(cc1OC)C(C(=O)NCc1ccco1)C1c3ccccc3CCN1C2=O (stereo not drawn)	5.61
Cl.O=C(NC1CCN(Cc2ccccc2)CC1)C12CC3CC(CC(C3)C1)C2	-7.72

SMILES	hERG current change (%, negative = inhibition) at 1uM [%]
Cc1ccc(NC(=O)C2CC(=O)n3c(nc4ccccc43)N2)cc1Cl (stereo not drawn)	15.6
COc1cc(N2C(=O)CC3(CCCC3)CC2=O)cc(OC)c1OC	10
COC(=O)c1sccc1NC(=O)c1ccccc1F	12.7
Cc1ccc(NS(=O)(=O)c2cccc(C(=O)N3CCOCC3)c2)cc1	8.52
C=CCNC(=O)c1ccccc1NC(=O)c1ccccc1N(C)S(C)(=O)=O	7.16
CN1CCc2c(OCC(=O)N3N=C(c4cccs4)CC3c3ccc(F)cc3)cccc2C1=O (stereo not drawn)	5.69
COCc1cc(C)nc(Nc2cc(C)ccc2C)c1C#N	15.2
NC(=S)NNc1cccc(Cl)c1	9.14
CCOC(=O)N1CCN(CC(O)c2c[nH]c3ccc(OC)cc23)CC1 (stereo not drawn)	18
COc1ccc(CCNC(C(=O)Nc2cc(C)cc(C)c2)c2ccccc2)cc1 (stereo not drawn)	0.993
COc1cc(/C=N/NC(=O)C2CCN(CC(O)COCc3ccccc3)CC2)cc(OC)c1OC (stereo not drawn)	-34.2
C=C1C2[C@H](OC(C)=O)[C@@H]3CC(=O)[C@]4(C)OC[C@@]3(C)[C@@]4(O)[C@@H](OC(C)=O)[C@H](OC(C)=O)[C@@]2(COC(=O)c2ccccc2)[C@@H](OC(C)=O)C[C@@H]1O (stereo partly drawn)	9.51
CCc1cc2c(=O)c(-c3nc4ccccc4n3C)c(C)oc2c(CN2CCN(CCO)CC2)c1O	6.39
O=C(CSc1nc(C2CC2)nc2ccccc12)Nc1ccccc1	4.52
Cc1ccc(C2(O)C(=O)c3ccccc3C2=O)c(O)c1C	1.6
COc1ccc(NC(=O)c2cccc(S(=O)(=O)N3CCN(C)CC3)c2)c(OC)c1	8.74
COc1ccc(N(CC(=O)Nc2cc(OC)c(OC)cc2C(=O)O)S(=O)(=O)c2c(C)noc2C)cc1	15.1
CC1=C(C(=O)OCc2ccccc2)C(c2cccnc2)n2nnnc2N1 (stereo not drawn)	-1.33
O=C(Nc1ccccc1)Nc1ccc(NC(=O)c2ccccc2O)cc1	11.4
COCCCNC(=S)N1CCN(c2nc(-c3cccc(OC)c3)cs2)CC1	14.9
Cc1ccc(-c2ccc(=O)n(CCC(=O)NCc3ccccn3)n2)cc1	-37.8
CC(C)(CC(=O)O)CC(=O)NCc1c(Cl)cccc1Oc1ccccc1	14.8
CN(C)S(=O)(=O)c1cc(NC(=O)[C@H](Cc2ccccc2)N2C(=O)c3ccccc3C2=O)ccc1Cl	5.04
COC(=O)COc1ccc(/C=C2\C(=O)NC(=S)N(c3ccc(C)cc3)C2=O)cc1OC	10.8
CCOC(=O)CNC(=O)N(CCOC)CC1CCCN(C2Cc3ccccc3C2)C1 (stereo not drawn)	1.45
O=C(CCCOc1ccc(Cl)cc1Cl)Nc1cccnc1	9.26
CN(C(=O)CSc1nnc(-c2ccc(F)cc2)c2ccccc12)C1CCS(=O)(=O)C1 (stereo not drawn)	2.06
